Measured values published in PubChem BioAssay AID2101 (National Center for Advancing Translational Sciences (NCATS), 2009).
Screen size: about 330,000 compounds; about 300 (0.091%) were called active. Inconclusive means that the source gave no clear call. Such entries were picked first, then a sample of the others. Calls come from the whole dose curve; as a rule, active = well fitted inhibition curve with a large enough effect; inconclusive = small, poorly fitted or top-dose-only effect, or effect the other way, or another doubt; inactive = no such curve, though single readings can be large or run the other way. Potencies of inconclusive entries are left out as doubtful fits.

biological target: Lysosomal acid glucosylceramidase (Homo sapiens) (UniProt P04062); assay: qHTS Assay for Inhibitors and Activators of N370S glucocerebrosidase as a Potential Chaperone Treatment of Gaucher Disease; settings: N370S GC spleen homogenate, 4MU-glucoside fluorescence; activity change, negative = inhibition: at 59.4 µM (top of the series) unless noted;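 for activity change, negative = inhibition: 0% = full enzyme activity and -100% = no enzyme basal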
Potency is the fitted concentration of half-maximal effect.

| Compound | Potency | activity change, negative = inhibition |
| --- | --- | --- |
| Cc1ccc2nc(SCC(=O)N3CCC(C)CC3)nc(=O)n2c1 | inactive |  |
| CCc1nnc(NC(=O)C2CCN(C(=O)c3ccccc3C)CC2)s1 | inactive |  |
| O=C(N/N=C/c1ccncc1)c1ccccn1 | inconclusive [activator, single point] |  |
| COc1cc(/C=C/C(=O)O)cc(OC)c1 | inconclusive [inhibitor, full curve, poor fit] |  |
| COCCCn1c(=NC(=O)c2ccccc2)c(C#N)cc2c(=O)n3cccc(C)c3nc21 | inconclusive [activator, partial curve] |  |
| CC1CCc2c(sc3nc(CSc4nnnn4C)[nH]c(=O)c23)C1 (stereo not given) | inconclusive [activator, partial curve] |  |
| CN(C=O)CP(=O)(O)CN1CCCCC1 | inconclusive [inhibitor, partial curve] |  |
| COc1ccc(-c2nc3cnc(N4CCNCC4)nc3n(Cc3cccc(OC)c3)c2=O)cc1 | inconclusive [inhibitor, single point] |  |
| CCC(C)(C)n1nnnc1C(c1cc2cc3c(cc2[nH]c1=O)OCO3)N1CCCCC1 (stereo not given) | inactive |  |
| CC(C)(C)NC(=S)NC(=O)C12CCC3CC(CC(C3)C1)C2 | inconclusive [activator, single point] |  |
| CC(=O)Nc1ccc(-c2csc(Nc3ncccn3)n2)cc1 | inactive |  |
| CCC1OC2(C)OC(=N)C1(C#N)C(C#N)(C#N)C2c1ccccc1 (stereo not given) | inconclusive [activator, single point] |  |
| COCCNC(=O)c1ccc2c(Cl)c3c(nc2c1)CCC3 | inactive |  |
| C#CCOCCOCCOCCNc1nc(N2CCN(C(=O)CCCCCCCCCCNC(=O)[C@H](CCCCN)n3cc(CCO)nn3)CC2)nc(N2CCN(C(=O)CCCCCCCCCCNC(=O)[C@H](CCCN=C(N)N)n3cc(C[C@@H](C)CC)nn3)CC2)n1 | active: 7.94 µM |  |
| Cc1ccnc(Nc2nc(-c3ccc(O)c(O)c3)cs2)c1 | inactive |  |
| CCOC(=O)c1cc2c(=O)n3ccccc3nc2n(CC2CCCO2)c1=NC(=O)/C=C/c1ccccc1 (stereo not given) | inconclusive [activator, single point] |  |
| CC(C)CSC1=NSC2=NC(=O)/C(=C\c3coc4ccccc4c3=O)C(=N)N12 | inactive |  |
| CCOC(=O)c1cnc(SCc2nc(N)nc(Nc3ccccc3)n2)nc1N | inconclusive [activator, partial curve] |  |
| CCCC1=Nc2cc(C(=O)NCCN3CCOCC3)ccc2Sc2ccccc21 | inconclusive [inhibitor, partial curve] |  |
| O=C(O)c1cccc(S(=O)(=O)N2CCC(n3nnc4cc(C(F)(F)F)ccc43)CC2)c1 | inconclusive [inhibitor, partial curve] |  |
| COc1ccc(-c2oc3cccnc3c2/C=C/c2ccc(OC)c(OC)c2)cc1 | inconclusive [activator, partial curve] |  |
| CCn1nc(NC(C)=O)c2cc3cccc(C)c3nc21 | inactive |  |
| COc1ccccc1NS(=O)(=O)c1cc(NC(=O)C(C)C)ccc1N1CCCCC1 | inconclusive [activator, partial curve] |  |
| O=C(N/C=N/OCc1ccc(Cl)cc1Cl)NOCc1ncc(C(F)(F)F)cc1Cl | inconclusive [activator, partial curve] |  |

| Compound | Potency | activity change, negative = inhibition |
| --- | --- | --- |
| CCOC(OCC)OCC | inactive |  |
| CCN1CCN(c2ccc(S(=O)(=O)N3CCCCC3)cc2NC(=O)/C=C/c2ccc(OC)c(OC)c2)CC1 | inconclusive [inhibitor, partial curve] |  |
| N#CCCS(=O)(=O)c1ccccc1 | inactive |  |
| Nc1cc(C(=O)O)c(O)c(S(=O)(=O)O)c1 | inactive |  |
| COC(=O)C#CC(=O)OC | inactive |  |
| O=C(Nc1nc2c(s1)CCCC2)c1ccc(N2C(=O)CCC2=O)cc1 | inconclusive [activator, single point] |  |
| c1ccc(CN2CCN(CCOCCOc3cccc4ccccc34)CC2)cc1 | inconclusive [inhibitor, partial curve] |  |
| Cc1cc2cc(CN(CC3CCCO3)C(=S)NCc3ccco3)c(=O)[nH]c2cc1C (stereo not given) | inconclusive [activator, single point] |  |
| Cc1cc(=O)oc(C)c1C(=O)OCC(=O)c1ccccc1 |  | inconclusive: 31.2% [activator] |
| Cc1ccc(NC(=O)CC(C)CC2=NS(=O)(=O)c3ccccc3N2)cc1 (stereo not given) | inconclusive [inhibitor, partial curve, poor fit] |  |
| COC(=O)c1ccc(C2C(C#N)=C(C)NC3=C2C(=O)CC(C)(C)C3)cc1 (stereo not given) | inconclusive [inhibitor, partial curve, poor fit] |  |
| O=[N+]([O-])c1ccc(O)c(Nc2c([N+](=O)[O-])ccc3nonc23)c1 | inconclusive [inhibitor, single point] |  |
| O=c1c2[nH]c3ccccc3c2ncn1C1CCCCC1 | inconclusive [activator, partial curve] |  |
| O=C1CCCN1CCC(=O)N1CCCC(CO)(Cc2ccccc2)C1 (stereo not given) | inactive |  |
| Cc1ccc(O)c(C(=O)/C=C/c2ccc3c(c2)OCCCO3)c1 | inactive |  |
| O=C(N/N=C/c1c(Cl)[nH]c2ccccc12)c1sc2ccccc2c1Cl | inconclusive [activator, partial curve] |  |
| CC(=O)Oc1ccc2c(C)c(CC(=O)N3CCN(C(=O)C4COc5ccccc5O4)CC3)c(=O)oc2c1C (stereo not given) | inconclusive [activator, partial curve] |  |
| COc1ccc(C(=O)CN2C(=O)NC(C)(c3ccc(C)cc3)C2=O)cc1OC (stereo not given) | inconclusive [inhibitor, single point] |  |
| Cc1cc(OCC(O)CNC(C)c2ccccc2)ccc1C(C)C (stereo not given) | inconclusive [inhibitor, partial curve] |  |
| C=CCc1cccc(/C=N/n2cnnc2)c1O | inconclusive [inhibitor, partial curve, poor fit] |  |
| O=C(Oc1ccc(Cl)cc1)c1ccc(N2CCOCC2)c([N+](=O)[O-])c1 | inconclusive [activator, partial curve] |  |
| CC1CCC(NC(=O)C2CCC(CNS(=O)(=O)c3cccc4cccnc34)CC2)CC1 (stereo not given) | inconclusive [inhibitor, partial curve, poor fit] |  |
| Cc1ccccc1N(C(=O)c1snc(C(N)=O)c1N)C(C(=O)NC1CCCC1)c1ccco1 (stereo not given) | inconclusive [activator, single point] |  |
| c1ccc(Cn2c(-c3cncs3)nc3ccccc32)cc1 | inconclusive [activator, single point] |  |

| Compound | Potency | activity change, negative = inhibition |
| --- | --- | --- |
| Cc1c(NC(=O)C(C)OC(=O)/C=C/c2ccc(OC(F)F)cc2)c(=O)n(-c2ccccc2)n1C (stereo not given) | inconclusive [inhibitor, full curve, poor fit] |  |
| CC1=C/C(=N\NC(=O)c2cccs2)CC(C)(C)C1 | inconclusive [activator, partial curve] |  |
| C=CCc1cc(C=O)cc(OC)c1OCc1c(Cl)cccc1Cl | inconclusive [activator, single point] |  |
| Cc1ccc(SCc2cn3cccnc3n2)cc1 | inactive |  |
| O=C(CC(=O)c1ccccc1)c1ccccc1 | inconclusive [activator, partial curve] |  |
| O=c1cc(-c2ccc(C3CCCCC3)cc2)[nH][nH]1 | inactive |  |
| Cc1cccn2c(=O)c3cc(C(=O)NCC(C)C)sc3nc12 | inconclusive [activator, single point] |  |
| CC1CCc2c(nc3ncnn3c2NCCc2ccccc2F)C1 (stereo not given) | inactive |  |
| Cc1ccc(C)c(OCCCCN2CCNCC2)c1C | inconclusive [inhibitor, partial curve] |  |
| COc1ccccc1C1C2=C(CCCC2=O)N(CC(=O)O)C2=C1C(=O)CCC2 | inconclusive [activator, partial curve] |  |
| Cc1ccc2nc3c(cc(C(=O)NCC4CCCO4)c(=N)n3C3CCCC3)c(=O)n2c1 (stereo not given) | inconclusive [activator, full curve] |  |
| CC(C)CCNC(=O)C(CC(C)C)NC(=O)C1OC1C(=O)O (stereo not given) | inactive |  |
| COc1ccc(-c2noc(CCC(=O)O)n2)cc1 | inactive |  |
| Cc1cc(-c2nnc(-c3ccccc3)c(-c3ccccc3)n2)c(C)o1 | inactive |  |
| C[C@H](NC(=O)NCc1ccc(F)cc1)C(=O)O | inconclusive [inhibitor, full curve, poor fit] |  |
| Cc1ccccc1-c1nc(CN2CCN(C(=O)c3ccco3)CC2)c(C)o1 | inactive |  |
| O=C(Cn1c(NCCO)nc2ccccc21)c1ccc(Cl)cc1 | inconclusive [inhibitor, single point] |  |
| O=c1c2ccccc2nc2n1C(CSCc1ccccc1)CS2 (stereo not given) | inconclusive [activator, single point] |  |
| Cn1c(=NC(=O)C2CCCCC2)sc2cc([N+](=O)[O-])ccc21 | inactive |  |
| CCN(CC)S(=O)(=O)c1ccc(N2CCOCC2)c(NC(=O)c2ccccc2)c1 | inconclusive [activator, full curve] |  |
| Cc1ccc2cc(COC(=O)c3ccco3)c(=O)[nH]c2c1 | inconclusive [activator, single point] |  |
| C#CCOCCOCCOCCNc1nc(N2CCN(C(=O)CCCCCCCCCCNC(=O)[C@H]([C@@H](C)CC)n3cc(CCCCCN)nn3)CC2)nc(N2CCN(C(=O)CCCCCCCCCCNC(=O)[C@@H]([C@H](C)O)n3cc(C)nn3)CC2)n1 | inconclusive [inhibitor, partial curve] |  |
